Source: PubChem BioAssay AID588342 (National Center for Advancing Translational Sciences (NCATS), 2011)
Out of some 360,000 compounds screened, about 25,000 (6.9%) were called active. Inconclusive means that the source gave no clear call. Such entries were picked first, then a sample of the others. Calls follow the shape of the dose curve; as a rule, active = well fitted inhibition curve with a large enough effect; inconclusive = small, poorly fitted or top-dose-only effect; inactive = flat fitted curve, though single readings scatter. Potencies of inconclusive entries are doubtful fits and often do not repeat.
Also: nearly all actives have a fitted effect of over 55% in size.
Potency is read from the fitted curve at half-maximal effect; tags tell the direction and shape of the fitted curve.

These compounds were tested against Luciferin 4-monooxygenase (Photinus pyralis) (UniProt P08659) (assay: qHTS profiling assay for firefly luciferase inhibitor/activator using purifed enzyme and Km concentrations of substrates (counterscreen for miR-21 project)). Conditions: purified FLuc, luminescence inhibition; series mostly up to 57.5 µM.
Sequence of UniProt P08659 (P08659 whole entry, looked up): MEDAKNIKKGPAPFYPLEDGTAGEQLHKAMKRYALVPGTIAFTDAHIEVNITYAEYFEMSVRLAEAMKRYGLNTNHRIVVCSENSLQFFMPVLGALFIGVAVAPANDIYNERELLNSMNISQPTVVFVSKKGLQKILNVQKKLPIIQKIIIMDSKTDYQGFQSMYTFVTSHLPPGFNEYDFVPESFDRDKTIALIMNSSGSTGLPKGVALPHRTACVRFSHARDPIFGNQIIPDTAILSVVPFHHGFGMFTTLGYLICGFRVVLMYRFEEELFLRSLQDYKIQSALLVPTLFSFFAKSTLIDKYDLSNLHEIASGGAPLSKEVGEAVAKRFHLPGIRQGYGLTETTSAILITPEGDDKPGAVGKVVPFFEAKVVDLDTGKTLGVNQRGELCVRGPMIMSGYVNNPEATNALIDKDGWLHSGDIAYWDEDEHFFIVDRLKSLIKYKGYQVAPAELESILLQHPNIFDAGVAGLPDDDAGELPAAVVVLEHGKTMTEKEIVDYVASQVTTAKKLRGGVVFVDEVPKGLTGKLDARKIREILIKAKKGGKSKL
Outline: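 Biochemical qHTS of compounds, final roughly 60 µM downward over six points, against 10 nM purified firefly luciferase using Km concentrations of substrates (10 uM D-luciferin, 10 uM ATP) in Tris acetate pH 7.5 buffer; luminescence output.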
In the case of `Cc1cc(C)n2nc(C(=O)OCC(=O)c3ccc(F)cc3)nc2n1`, the Potency is reported as inconclusive: 12 µM [inhibitor, partial curve, poor fit].
For `COc1ccc(-n2c(C)cc(/C=C3/SC(=O)N(CC(=O)N4CCOCC4)C3=O)c2C)cc1`, the Potency was active: 1.69 µM.
In the case of `CCCC1(c2ccccc2)NC(=O)N(CC(=O)NCc2ccc(OC)cc2)C1=O` (stereo not drawn), the Potency is reported as “inactive”.
With `CC(=O)c1ccc(OC(C)c2nc3ccccc3s2)cc1` (stereo not drawn) the Potency was inconclusive: 30.1 µM [inhibitor, single point].
With `Nc1nc(SCC(=O)Nc2ccc(OCc3ccccc3)cc2)n[nH]1` the Potency was inconclusive: 26.9 µM [inhibitor, single point].
For `COc1ccc(/C=C2\SC(N3CCCCC3)=NC2=O)cc1OC`, the Potency was active: 10.7 µM.
For `CC(=O)c1cccc(S(=O)(=O)N2CCCC(c3nc(-c4ccc(C)o4)no3)C2)c1` (stereo not drawn), the Potency was inconclusive: 37.9 µM [inhibitor, partial curve, poor fit].
`NNC(=O)COc1ccc(-c2nccc(-c3ccc(F)cc3)n2)cc1` was tested, and the Potency was inconclusive: 2.69 µM [inhibitor, full curve].
`CSc1ccc(S(=O)(=O)N2CCC(C(=O)Nc3ccccc3C(F)(F)F)CC2)cc1` was tested, and the Potency was “inactive”.
`CCN1CCN(CC(=O)N2CCCC(C(=O)c3ccc(Oc4ccccc4)cc3)C2)CC1` (stereo not drawn) was tested, and the Potency was inconclusive: 19 µM [inhibitor, single point].
In the case of `CC(C)(C)c1cc(NC(=O)c2cccc([N+](=O)[O-])c2)no1`, the Potency is reported as inconclusive: 3.79 µM [inhibitor, full curve].
For `CCN1/C(=C2\C(=O)N(C)C(=S)N2C)C=Cc2cc(OC)ccc21`, the Potency was inconclusive: 37.9 µM [inhibitor, single point].
For `Nc1ccc(Sc2ccc([N+](=O)[O-])cc2)cc1`, the Potency was inconclusive: 26.9 µM [inhibitor, partial curve, poor fit].
For `CCN1CCN(c2cc(C)c3cc(NC(=O)c4ccc(Br)o4)ccc3n2)CC1`, the Potency was inconclusive: 26.9 µM [inhibitor, partial curve, poor fit].
For `Cc1cccc(/C=N\NC(=O)c2csnn2)c1`, the Potency was active: 8.49 µM.
For `CCCn1nc(C(=O)NNC(=O)Cc2ccc(S(=O)(=O)N3CCOCC3)s2)c2ccccc2c1=O`, the Potency was “inactive”.
For `CCOC(=O)c1ccc(NC(=O)COC(=O)Cc2csc(-c3ccccc3)n2)cc1`, the Potency was inconclusive: 37.9 µM [inhibitor, single point].
In the case of `CCN(C(=O)CN1C(=O)S/C(=C\c2cccc(OC)c2)C1=O)C1CCS(=O)(=O)C1` (stereo not drawn), the Potency is reported as inconclusive: 37.9 µM [inhibitor, single point].
In the case of `[O-][n+]1onc2c1CCC(=N/O)/C2=N\Nc1ccccc1`, the Potency is reported as inconclusive: 15.1 µM [inhibitor, partial curve, poor fit].
With `N#CC(Sc1ccccn1)c1ccc(Cl)cc1Cl` (stereo not drawn) the Potency was inconclusive: 37.9 µM [inhibitor, partial curve, poor fit].
For `CCc1ccc(S(=O)(=O)/N=C2\C=CC(=O)c3ccccc32)cc1`, the Potency was inconclusive: 19 µM [inhibitor, single point].
In the case of `COc1ccc(-c2cc(C(=O)N3CCc4ccccc4C3)no2)cc1`, the Potency is reported as active: 16.9 µM.
In the case of `Cc1c(N2C(=O)CS/C2=N\N=C\c2ccccc2O)c(=O)n(-c2ccccc2)n1C`, the Potency is reported as inconclusive: 19 µM [inhibitor, partial curve].
In the case of `Cc1ccc(OCC(O)CNC(=O)c2ccccc2C(=O)O)cc1` (stereo not drawn), the Potency is reported as inconclusive: 33.8 µM [inhibitor, partial curve, poor fit].
In the case of `O=C(c1ccc(Br)o1)N1CCN(Cc2ccccc2Cl)CC1`, the Potency is reported as “inactive”.
For `O=C(Cc1cccc2ccccc12)Nc1ccccc1C(=O)O`, the Potency was active: 26.9 µM.
`Cc1ccc(-c2ccc(=O)n(CC(=O)Nc3ccc(F)c(Cl)c3)n2)cc1C` was tested, and the Potency was “inactive”.
In the case of `O=C(COc1ccc(S(=O)(=O)NC2CCCCC2)cc1)N1CCN(c2ccc(F)cc2)CC1`, the Potency is reported as “inactive”.
In the case of `CCn1c(SCC(=O)N/N=C/c2c[nH]c3ccccc23)nnc1-c1ccc(C(C)(C)C)cc1`, the Potency is reported as inconclusive: 19 µM [inhibitor, partial curve].
In the case of `CCN(CC)c1ccc(/C=N/n2nnnc2N)c(O)c1`, the Potency is reported as inconclusive: 26.9 µM [inhibitor, partial curve].
For `COc1cc(/C=C2\C(=O)N(c3ccc(S(N)(=O)=O)cc3)N=C2C)ccc1OC(=O)c1ccco1`, the Potency was inconclusive: 12 µM [inhibitor, partial curve, poor fit].
In the case of `COC(=O)c1ccc(NC(=O)CN2C(=O)CSC2=O)cc1`, the Potency is reported as inconclusive: 42.6 µM [inhibitor, partial curve, poor fit].
In the case of `Cc1ccccc1-c1ccc(C(=O)NCc2ccccc2)o1`, the Potency is reported as active: 26.9 µM.
`Fc1ccc(-n2cc(-c3ccccc3)c3c(N4CCOCC4)ncnc32)cc1` was tested, and the Potency was inconclusive: 23.9 µM [inhibitor, partial curve, poor fit].
In the case of `Cc1nc2ccc(NC(=O)N(C(C)C)C(C)C)cc2s1`, the Potency is reported as inconclusive: 15.1 µM [inhibitor, partial curve].
With `CCC(COC)Oc1cc(NCc2ccccc2)c2ncn(C(C)C)c2c1` (stereo not drawn) the Potency was “inactive”.
`C/C(=N\N=C\c1ccccc1F)c1nnn(-c2nonc2N)c1C` was tested, and the Potency was inconclusive: 7.57 µM [inhibitor, partial curve].
For `O=C1Cc2ccccc2C(=O)N1CCc1ccccc1`, the Potency was inconclusive: 23.9 µM [inhibitor, single point].
In the case of `CCOC(=O)C(N)CSC1CC(=O)N(CCc2ccccc2)C1=O` (stereo not drawn), the Potency is reported as “inactive”.
`O=C(Nc1cccc(NC(=O)c2ccco2)c1)c1ccccc1` was tested, and the Potency was inconclusive: 37.9 µM [inhibitor, partial curve, poor fit].
With `O=C(O)c1cncc(C#Cc2ccccc2)c1` the Potency was inconclusive: 23.9 µM [inhibitor, single point].
`O=C(c1ccc(F)cc1F)N1CCCC(c2nc(-c3cccs3)no2)C1` (stereo not drawn) was tested, and the Potency was “inactive”.
In the case of `COc1ccccc1C(=O)Nc1ccc(-c2nc3ccccc3s2)c(C)c1`, the Potency is reported as active: 3.79 µM.
In the case of `COc1cc(/C=C/C(=O)c2ccc3c(c2)OCCO3)cc(Br)c1OCC(=O)N(C)C`, the Potency is reported as active: 12 µM.
For `COc1cc(/C=C2\CCC(C3CCCC3)C2=O)ccc1OC(C)C` (stereo not drawn), the Potency was active: 15.1 µM.
In the case of `Cc1ccc(S(=O)(=O)c2c(Nc3cccc(Cl)c3)sc(C(=O)c3ccc4c(c3)OCO4)c2N)cc1`, the Potency is reported as “inactive”.
`O=C(OCc1cc(=O)n2c3c(sc2n1)CCCC3)c1cccc(NC(=O)c2ccccc2F)c1` was tested, and the Potency was inconclusive: 2.69 µM [inhibitor, partial curve, poor fit].
`COc1ccc(-c2nc3ccccc3n2Cc2ccc(Cl)cc2)cc1` was tested, and the Potency was inconclusive: 42.6 µM [inhibitor, partial curve, poor fit].
With `O=C(c1ccncc1)N1CCCC(N2CCN(c3ccc(F)cc3)CC2)C1` (stereo not drawn) the Potency was inconclusive: 37.9 µM [inhibitor, partial curve, poor fit].
`O=C(NCC(=O)N(Cc1cccs1)C(C(=O)NC1CCCCC1)c1ccco1)c1cccs1` (stereo not drawn) was tested, and the Potency was “inactive”.
In the case of `O=C(OCC(=O)N1CCOCC1)c1ccccc1Br`, the Potency is reported as inconclusive: 21.3 µM [inhibitor, single point].
For `COc1cccc(/C=N/Nc2nc(Nc3ccccc3)nc(-n3nc(C)cc3C)n2)c1O`, the Potency was active: 6.01 µM.
With `CCOC(=O)Cc1c(C)nc2c(-c3ccccc3)cnn2c1C` the Potency was inconclusive: 23.9 µM [inhibitor, partial curve].
With `COC(=O)c1ccsc1NC(=O)CCc1ccccc1` the Potency was inconclusive: 26.9 µM [inhibitor, partial curve].
`O=C(c1cc([N+](=O)[O-])ccc1Cl)N1c2ccccc2Sc2ccccc21` was tested, and the Potency was “inactive”.
For `Cc1nc(NC(=O)/C=C/c2ccc(C(C)(C)C)cc2)sc1C(=O)N(C)C`, the Potency was inconclusive: 26.9 µM [inhibitor, partial curve, poor fit].
`COC(CNC(=O)CSCc1nc(-c2ccc(SC)cc2)oc1C)OC` was tested, and the Potency was inconclusive: 37.9 µM [inhibitor, partial curve, poor fit].
`COc1cccc(/C=N\NC(=O)c2sc(N)nc2C)c1OC` was tested, and the Potency was inconclusive: 16.9 µM [inhibitor, partial curve].
With `O=C(NNC(=O)c1ccc(Oc2ccc(C3SCCS3)cc2)o1)c1ccc(Cl)cc1` the Potency was inconclusive: 37.9 µM [inhibitor, partial curve, poor fit].
`Cc1cc(NC(=O)c2cccc3ccccc23)cc(C)c1OCC(=O)N1CCOCC1` was tested, and the Potency was inconclusive: 16.9 µM [inhibitor, partial curve].
`Cc1ccc2nc3c(cc2c1)c(NC(=O)c1ccccn1)nn3CC(C)C` was tested, and the Potency was inconclusive: 16.9 µM [inhibitor, partial curve].
With `COC(=O)c1ccccc1NC(=O)/C=C/c1ccco1` the Potency was active: 15.1 µM.
With `Cc1ccc2nc(C)/c(=N\O)c(C)nc2c1` the Potency was inconclusive: 37.9 µM [inhibitor, partial curve, poor fit].
For `Clc1ccc(OCCSc2ncccn2)c2ccccc12`, the Potency was inconclusive: 26.9 µM [inhibitor, partial curve, poor fit].
In the case of `Cc1ccccc1CC(=O)Nc1cc(C(C)(C)C)on1`, the Potency is reported as inconclusive: 23.9 µM [inhibitor, partial curve, poor fit].
With `COc1cccc(NS(=O)(=O)c2ccc3[nH]cc(C(=O)N(C)C4CCCCC4)c(=O)c3c2)c1` the Potency was inconclusive: 15.1 µM [inhibitor, partial curve].
For `O=C1C(c2ccccc2)=[N+]([O-])c2ccccc21`, the Potency was active: 12 µM.
For `Cc1ccc(C(=O)N2CCCC(C(=O)Nc3cccc(-c4ccc(F)cc4)c3)C2)cn1` (stereo not drawn), the Potency was inconclusive: 37.9 µM [inhibitor, single point].
